Experimental data published in PubChem BioAssay AID1476 (National Center for Advancing Translational Sciences (NCATS), 2009).
The campaign covered roughly 200,000 compounds. About 4,500 (2.2%) were called active. Inconclusive results, whose numbers are uncertain, are shown with a selection of clear calls. Calls come from the whole dose curve; as a rule, active = well fitted inhibition curve with a large enough effect; inconclusive = small, poorly fitted or top-dose-only effect, or effect the other way; inactive = flat fitted curve, though single readings scatter. Where the call is inconclusive, the potency comes from a doubtful curve fit.

Target: Cruzipain (Trypanosoma cruzi) (UniProt P25779)
Chain of UniProt P25779 (P25779 whole entry, looked up): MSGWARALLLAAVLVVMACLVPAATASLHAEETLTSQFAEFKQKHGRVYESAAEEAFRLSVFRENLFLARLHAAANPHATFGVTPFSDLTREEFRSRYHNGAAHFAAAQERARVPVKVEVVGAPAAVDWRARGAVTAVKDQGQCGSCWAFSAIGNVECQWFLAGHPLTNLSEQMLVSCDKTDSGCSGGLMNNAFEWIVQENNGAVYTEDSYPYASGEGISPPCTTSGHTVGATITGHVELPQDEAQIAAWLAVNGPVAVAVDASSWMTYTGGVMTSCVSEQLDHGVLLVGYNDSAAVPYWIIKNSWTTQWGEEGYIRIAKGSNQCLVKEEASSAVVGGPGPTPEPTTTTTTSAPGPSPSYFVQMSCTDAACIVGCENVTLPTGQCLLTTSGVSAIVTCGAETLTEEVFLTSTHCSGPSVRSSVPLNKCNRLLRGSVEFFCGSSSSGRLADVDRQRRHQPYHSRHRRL
Assay: qHTS Assay for Promiscuous and Specific Inhibitors of Cruzain (without detergent); note: nearly all actives have a fitted effect of over 40% in size;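 for max response, negative = inhibition: plate controls were enzyme without inhibitor for no effect and buffer without enzyme for full effect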
Settings: purified cruzain, Z-FR-AMC fluorescence, no detergent
How it was run: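 Detergent-free condition (0.00005% Triton X-100) in acetate buffer pH 5.5 with DTT. 1.5 nM enzyme and compound were pre-mixed 15 min, then 2 uM Z-FR-AMC substrate added; reaction progress from fluorescence change between first and third reads (60 s).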
Potency is the fitted concentration of half-maximal effect; tags give direction and shape of the fitted curve.

Compound | Potency | max response, negative = inhibition
Cc1ccccc1NC(=O)c1ccc(CN(c2ccccc2)S(=O)(=O)c2ccccc2)cc1 | inconclusive: 25.1 µM [inhibitor, single point] | –
COc1cc(OC)cc(-c2cc3nc(C)c(CCC(=O)Nc4nc(C)cs4)c(C)n3n2)c1 | inconclusive: 39.8 µM [activator, single point] | –
CCOC(=O)Cn1c(=O)n(CC2CCCO2)c2nc(-c3ccc(C)cc3)nc(C(N)=O)c21 (stereo not given) | inconclusive: 25.1 µM [activator, single point] | –
O=C(O)c1ccccc1-c1c2cc(Br)c(=O)cc-2oc2[c]([Hg])c(O)c(Br)cc12 | inconclusive: 6.31 µM [activator, single point] | –
COc1cc(CNC(=O)c2ccc(Cn3nc(C)c(Cl)c3C)o2)cc(OC)c1 | inconclusive: 39.8 µM [activator, single point] | –
Cc1nc(NCc2ccccc2)c2nc(-c3ccccc3)n(CCN3CCOCC3)c2n1 | inconclusive: 39.8 µM [activator, single point] | –
Sc1oc(-c2ccccc2)cc1C=Nc1ccccc1 | inconclusive: 31.6 µM [inhibitor, single point] | –
COc1ccc(CNC(=O)Cc2c(C)c3cc4c(C)coc4c(C)c3oc2=O)cc1 | – | inactive: -1.65%
O=C(Nc1cccc(Cl)c1)c1cnc2sc(N3CCCC3)nn2c1=O | – | inactive: 9.21%
O=c1oc(-c2cccs2)nc2scc(-c3cccs3)c12 | inconclusive: 31.6 µM [inhibitor, single point] | –
COc1cc(NC(=O)COC(=O)CNC(=O)c2cc(C)cc(C)c2)c(C)cc1[N+](=O)[O-] | – | inactive: -19.6%
Cc1cccc(N2CCN(c3ccc(NC(=O)/C=C(/C(=O)O)c4ccccc4)cc3)CC2)c1 | inconclusive: 31.6 µM [inhibitor, single point] | –
CCOC(=O)C1=C(O)/C(=C/c2ccccn2)SC1=Nc1ccc(Cl)cc1 | inconclusive: 39.8 µM [activator, single point] | –
CCOC(=O)/C=C1\NC(C)(C)Cc2cc(OC)c(OC)cc21 | – | inactive: -0.56%
COc1ccc(Cn2c(=O)c3oc4ccccc4c3n(Cc3cccc(C(F)(F)F)c3)c2=O)cc1 | – | inactive: 5.54%
CCCCOC(=O)C1=C(C)Nc2ncnn2C1c1ccc(OC)c(OC)c1OC (stereo not given) | inconclusive: 25.1 µM [activator, single point] | –
COc1ccccc1N1CCN(C(=O)Cn2cnc3onc(-c4ccc(F)cc4)c3c2=O)CC1 | inconclusive: 31.6 µM [activator, single point] | –
Cc1cc(C)n(CC(O)Cn2c3ccc(Br)cc3c3cc(Br)ccc32)c(=O)n1 (stereo not given) | inconclusive: 25.1 µM [activator, partial curve] | –
Cc1cccc(N2CCN(c3nc4ccc(Cl)cc4n4cnnc34)CC2)c1C | inconclusive: 39.8 µM [inhibitor, single point] | –
Cc1nc(NCCc2ccccc2)c(C#N)c(C)c1[N+](=O)[O-] | – | inactive: -0.702%
COC(=O)c1sccc1NC(=O)c1cc2c(s1)CCCC2 | – | inactive: -13.1%
Cc1cccc(N2CCN(C(=O)Nc3cn(CC(C)C)c(=O)c4ccccc34)CC2)c1C | – | inactive: 15.5%

Compound | Potency | max response, negative = inhibition
CC(C)c1ccc(CN(Cc2ccco2)c2cnc(S(C)(=O)=O)nc2C(=O)Nc2ccc(F)cc2)cc1 | active: 15.8 µM | –
CCOC(=O)Cn1c(=NC(=O)c2nc3ccccc3s2)sc2cc(S(N)(=O)=O)ccc21 | inconclusive: 39.8 µM [inhibitor, single point] | –
CCCCCCOc1ccc(C2C(=O)N(C3CCCCC3)CC(=O)N2CCC)cc1 (stereo not given) | inconclusive: 20 µM [activator, single point] | –
CCOC(=O)c1c(C)n(C)c2cc(Br)c(C)cc12 | inconclusive: 39.8 µM [activator, single point] | –
O=C(Cc1ccccc1)Nn1c(O)c(/C=C2\C=Nc3ccccc32)sc1=S | inconclusive: 39.8 µM [inhibitor, single point] | –
CN(C)CC(CN(C)C)c1ccccn1 | – | inactive: 12.1%
CCOc1ccc(CCNC(=O)CCCn2nc(C)c3sc4ccccc4c3c2=O)cc1 | inconclusive: 25.1 µM [activator, partial curve] | –
O=C(Nc1cccc(S(=O)(=O)N2CCOCC2)c1)[C@@H]1CCCN1S(=O)(=O)c1ccc(Cl)cc1 | inconclusive: 39.8 µM [activator, single point] | –
CCOc1ccc(CCNC(=O)Cc2nn[nH]n2)cc1OCC | – | inactive: -0.576%
COc1ccc(Br)cc1CN1CCN(CCO)CC1 | – | inactive: -4.08%
CCCCN(C)CCCNC(=O)c1cc(-c2ccc(Br)s2)nc2ccccc12 | – | inactive: -6.81%
CCN(CCCNC(=O)CN1N=C(c2ccc(OC)cc2)CCC1=O)c1cccc(C)c1 | – | inactive: 19.5%
O=C(Nc1ncn[nH]1)c1ccc(Cl)c(S(=O)(=O)N2CCCCCC2)c1 | inconclusive: 31.6 µM [inhibitor, single point] | –
CN(Cc1ccccc1)S(=O)(=O)c1cc(Br)cc2c1N(C(=O)C1CC1)CC2 | – | inactive: -11.4%
CC(C)Cc1ccc(S(=O)(=O)Nc2cc3c(cc2N2CCOCC2)n(C)c(=O)c(=O)n3C)cc1 | – | inactive: 10.8%
O=C(N=Nc1c(O)[nH]c2ccccc12)c1cccc(S(=O)(=O)N2CCCCC2)c1 | – | inactive: -16.5%
CCc1ccc(OCC(=O)OCC(=O)c2ccc3c(c2)NC(=O)CO3)cc1 | inconclusive: 31.6 µM [inhibitor, single point] | –
COc1ccc(-c2nnn(CC(=O)N(Cc3ccccc3Cl)C(C(=O)NCC3CCCO3)c3ccco3)n2)cc1OC (stereo not given) | inconclusive: 31.6 µM [activator, single point] | –
COc1cccc(C(=O)Nc2ccc(-c3cc(C(F)(F)F)nn3-c3ccccc3)cc2)c1 | inconclusive: 15.8 µM [inhibitor, partial curve] | –
Cc1ccc(-n2nc3ccc(NC(=O)c4ccc5c(c4)OCO5)cc3n2)cc1 | – | inactive: -6.17%
CCC(SC1=NCCS1)C(=O)Nc1ccc(S(N)(=O)=O)cc1 (stereo not given) | inconclusive: 1 µM [inhibitor, single point] | –
c1ccc(-c2ccc(-c3csnn3)cc2)cc1 | active: 20 µM | –

Compound | Potency | max response, negative = inhibition
O=C(Nc1c(F)cc(F)cc1Br)c1cc(-c2ccco2)on1 | inconclusive: 39.8 µM [inhibitor, single point] | –
COC(=O)c1c(NC(=O)CN2CCC3(O)CCCCC3C2c2ccc(F)cc2)sc(C)c1C (stereo not given) | inconclusive: 31.6 µM [inhibitor, single point] | –
CC(/C=N/NC(=O)c1n[nH]c2c1CCC2)=C\c1ccccc1 | inconclusive: 39.8 µM [inhibitor, single point] | –
Cc1ccc(-c2nc3sc(CCNC(=O)c4ccc(C)c(C)c4)c(C)n3n2)cc1 | – | inactive: -11.6%
COc1ccc(C(=O)n2nc(-c3ccco3)nc2NCc2cccs2)cc1OC | – | inactive: 18.1%
COc1cccc2c1OCC/C2=N\NC(=O)COc1ccccc1C | inconclusive: 25.1 µM [activator, single point] | –
O=C(Nc1ccc(Cl)cc1)Nc1ccc2c(c1)N1CCN=C1S2 | active: 31.6 µM | –
CCc1ccc(NC(=O)CSC2=Nc3ccccc3C3=NC(CCC(=O)NCc4ccco4)C(=O)N23)cc1 (stereo not given) | inconclusive: 31.6 µM [activator, single point] | –
CC(C)(C)c1ccc(S(=O)(=O)N2CCN(Cc3noc(CCC(=O)N4CCCCC4)n3)CC2)cc1 | inconclusive: 31.6 µM [activator, partial curve] | –
COc1ccc(CCNC(=O)COC(=O)/C=C/c2ccc(OCC#N)c(OC)c2)cc1OC | inconclusive: 39.8 µM [activator, single point] | –
O=C(O)c1cncc(C(=O)O)c1 | – | inactive: -5.38%
COC(=O)c1cc2ccsc2n1CC(=O)Nc1cc(C)cc(C)c1 | inconclusive: 39.8 µM [inhibitor, single point] | –
O=C(Nc1cccc(F)c1)N1CCCC2(CCN(C(=O)c3cc(C(F)(F)F)cc(C(F)(F)F)c3)CC2)C1 | inconclusive: 25.1 µM [activator, single point] | –
CC1CCc2c(sc(NC(=O)CSc3nc4c(c(C(F)(F)F)n3)CCc3ccccc3-4)c2C(N)=O)C1 (stereo not given) | active: 10 µM | –
CC(=O)N1CCc2c(sc3c2c(=O)n(CCc2ccccc2)c(=O)n3Cc2ccc(Cl)cc2)C1 | inconclusive: 20 µM [activator, partial curve] | –
O=C(Nc1sc2c(c1C(=O)NCc1ccco1)CCCC2)c1ccc2c(c1)OCO2 | inconclusive: 31.6 µM [inhibitor, single point] | –
COc1ccc(OC)c(S(=O)(=O)N2CCC(C(=O)NCCc3ccc(OC)c(OC)c3)CC2)c1 | inconclusive: 7.94 µM [inhibitor, single point] | –
CCN(Cc1ccccc1)C(=O)CN(c1ccc(OC)cc1)S(=O)(=O)c1c(C)nn(C)c1C | inconclusive: 31.6 µM [activator, single point] | –
CC(C)CC(=O)/C(=C\c1ccc(Cl)cc1Cl)n1cncn1 | inconclusive: 39.8 µM [activator, single point] | –
CCCCN(CCCC)CCNC(=O)c1cn(CC)c2ccc(S(=O)(=O)N(C)C3CCCCC3)cc2c1=O | inconclusive: 31.6 µM [activator, single point] | –
COc1ccc(-c2nc(C)c(CCNS(=O)(=O)c3cc(C)c(C)cc3C)s2)cc1 | – | inactive: 8.14%
